Source: paper PMC5540273 (PLoS ONE, 2017)
For some of these results: The strong results were mostly taken out for another list; the other results follow. The list shows a part of the results, in another mix than the full data.

Experiments:
Settings in all cases: concentration: 1 μM,replicates: in singlicate; n = 1
[1] = test system: T1, MEK3
T1 construct: gene MAP2K3

[2] = test system: T2, MEK4
T2 construct: gene MAP2K4

[3] = test system: T3, MEK5
T3 construct: gene MAP2K5

[4] = test system: T4, MEK6
T4 construct: gene MAP2K6

[5] = test system: MELK
[6] = test system: MERTK
[7] = test system: MET
[8] = test system: T5, MINK
T5 construct: gene MINK1

[9] = test system: MKK7
[10] = test system: MKNK1
[11] = test system: MKNK2
[12] = test system: T6, MLCK
T6 construct: gene MYLK3

[13] = test system: T7, MLK1
T7 construct: gene MAP3K9

[14] = test system: MLK2
[15] = test system: MLK3
[16] = test system: MRCKA
[17] = test system: T8, MRCKB
T8 construct: gene CDC42BPB

[18] = test system: MST1R
[19] = test system: T9, MST1
T9 construct: gene STK4

[20] = test system: T10, MST2
T10 construct: gene STK3
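Note: KINOMEscan kinase panel screen.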

SMILES	%Inh [1] [%]	%Inh [2] [%]	%Inh [3] [%]	%Inh [4] [%]	%Inh [5] [%]	%Inh [6] [%]	%Inh [7] [%]	%Inh [8] [%]	%Inh [9] [%]	%Inh [10] [%]	%Inh [11] [%]	%Inh [12] [%]	%Inh [13] [%]	%Inh [14] [%]	%Inh [15] [%]	%Inh [16] [%]	%Inh [17] [%]	%Inh [18] [%]	%Inh [19] [%]	%Inh [20] [%]
Cc1ccc(C)c(Oc2nccc(-c3c(-c4ccc(F)cc4)ncn3C3CCNCC3)n2)c1.O=C(O)C(F)(F)F.O=C(O)C(F)(F)F.O=C(O)C(F)(F)F [SB-284852]	0	0	0	0	15	9	0	44	0	2	0	0	6	1	0	97.5	59	0	0	25
O=C(O)c1ccc(-c2nc(-c3ccc(F)cc3)c(-c3ccncc3)[nH]2)cc1 [SB-202620]	28	20	66	90	26	1	21	15	0	0	0	0	22	52	0	0	29	0	20	44
O=C1NC(=O)C(c2ccccc2)=C1Nc1ccc(Cl)c(C(=O)O)c1 [SB-390532]	0	28	34	0	0	0	23	0	0	28	0	0	0	0	0	37	0	31	0	0
Cc1cc(C)cc(Oc2nccc(-c3c(-c4ccc(F)cc4)ncn3C3CCNCC3)n2)c1.O=C(O)C(F)(F)F.O=C(O)C(F)(F)F.O=C(O)C(F)(F)F [SB-284851]	12	0	10	0	0	4	13	33	0	0	0	0	8	8	17	42	0	0	6	1
O=C1NC(=O)C(c2ccc(Cl)cc2)=C1Nc1cccc(C(=O)O)c1 [SB-360737]	0	15	0	0	0	11	0	0	25	0	11	0	7	0	0	18	0	0	5	0
O=C1NC(=O)C(c2ccc(Cl)cc2)=C1Nc1cccc(O)c1 [SB-333613]	24	27	37	0	13	1	0	13	24	0	5	0	0	30	7	52	0	0	0	0
O=C1NC(=O)C(c2ccccc2Cl)=C1Nc1cccc(C(=O)O)c1 [SB-390526]	0	11	10	0	3	0	0	5	0	0	0	5	0	0	0	0	5	1	0	100
CSc1ccc(NC2=C(c3cccc(Cl)c3)C(=O)NC2=O)cc1 [SB-341528]	1	0	49	0	44	0	0	0	0	0	8	13	0	0	28	11	0	10	0	0
